Target: T1, GFP-SNX32 WT (UniProt Q86XE0)
T1 sequence: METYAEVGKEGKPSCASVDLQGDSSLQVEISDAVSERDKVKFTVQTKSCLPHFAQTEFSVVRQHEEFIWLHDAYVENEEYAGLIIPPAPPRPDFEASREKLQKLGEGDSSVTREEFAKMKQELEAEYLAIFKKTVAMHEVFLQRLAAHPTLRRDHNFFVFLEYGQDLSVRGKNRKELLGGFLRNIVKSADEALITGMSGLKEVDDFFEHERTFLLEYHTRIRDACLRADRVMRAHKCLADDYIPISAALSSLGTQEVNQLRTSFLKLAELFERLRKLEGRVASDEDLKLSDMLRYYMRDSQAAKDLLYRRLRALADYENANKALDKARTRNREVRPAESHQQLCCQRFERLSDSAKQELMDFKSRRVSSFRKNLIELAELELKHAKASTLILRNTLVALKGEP
Assay: co-IP

ratio of CIMPR to GFP band intensity: 0.38
Substance: Cation Independent Mannose-6-Phosphate Receptor (a stretch of the chain, chain not printed)

Source: paper doi:10.1101/2022.11.04.515170
